This note sets out measurements from the supplement of paper PMC4604168 (melanoma cell lines).

Some of the results follow. Repeats are few or missing, and single values can be far off.

Test systems include G361; IPC-298; IST-MEL1; LB2518-MEL; LOXIMVI; MEL-HO; MZ2-MEL; MeWo; RPMI7951; RVH-421.
Holding throughout (assay): cell count relative to DMSO control; melanoma cells; higher = more viable cells
Common to all, as to details: library dose: standard library concentration; 72 h
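Also: cells treated in 1,536-well plates, then fixed and DAPI-stained, with nuclei counted from automated high-throughput microscope images.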

Turning to `CS(=O)(=O)c1ccc(C(=O)Nc2ccc(Cl)c(-c3ccccn3)c2)c(Cl)c1` [vismodegib] + COc1ccc2c(c1)CCC1C2CCC2(C)C(NCCCCCCN3C(=O)C=CC3=O)CCC12 [U73122] (first compound 5 µM, partner dose 2 µM), the cell count in the experiment on G361 came out at 87.5%; in the experiment with IPC-298, 105%; with IST-MEL1, 89.9%; with LB2518-MEL, 85.1%; in the experiment on LOXIMVI, 76.7%; in the experiment on MEL-HO, 101%. Besides, the cell count in the experiment with MZ2-MEL is 97.5%; with MeWo it was 62.9%; in the experiment with RPMI7951, 35.8%; with RVH-421 it was 66.5%.
Consider `CCCS(=O)(=O)Nc1ccc(F)c(C(=O)c2c[nH]c3ncc(Cl)cc23)c1F` + COc1ccc(COc2ccc(Cc3cnc(N)nc3N)cc2OC)cc1 [GW2580] (first compound 0.4 µM, partner dose 5 µM), for which the cell count with G361 came out at 64.7%; with IPC-298, 76%; in the experiment on IST-MEL1, 85.1%; in the experiment on LB2518-MEL, 99.3%; with LOXIMVI, 79.9%; in the experiment on MEL-HO, 84.6%. Moreover, the cell count with MZ2-MEL was determined as 85.7%; with MeWo, 76%; in the experiment with RPMI7951 it was 85.3%; in the experiment on RVH-421, 62.7%.
For `CS(=O)(=O)c1ccc(C(=O)Nc2ccc(Cl)c(-c3ccccn3)c2)c(Cl)c1` [vismodegib] + COCC[n+]1c2c(n(Cc3cnccn3)c1C)C(=O)c1ccccc1C2=O [YM155] (first compound 5 µM, partner dose 0.002 µM), the cell count amounted to 87.2% with G361; 73.8% with IPC-298; 43.2% with IST-MEL1; 55% in the experiment on LB2518-MEL; 66.4% in the experiment with LOXIMVI; 103% in the experiment with MEL-HO. In addition, the cell count in the experiment on MZ2-MEL was found to be 57.2%; with MeWo, 46.4%; in the experiment with RPMI7951, 48.4%; in the experiment on RVH-421, 99.8%.
For `C=C(c1ccc(C(=O)O)cc1)c1cc2c(cc1C)C(C)(C)CCC2(C)C` [Bexarotene] + Oc1cc(-c2nc(-c3ccccc3)[nH]c2-c2ccncc2)ccc1Cl [L779450] (first compound 10 µM, partner dose 1 µM), the cell count was 67.4% in the experiment on G361; 86.7% with IPC-298; 84% with IST-MEL1; 138% in the experiment with LB2518-MEL; 156% with LOXIMVI; 85.4% with MEL-HO. Besides, the cell count turned out to be 110% in the experiment with MZ2-MEL, 94.7% in the experiment with MeWo, 82.3% in the experiment on RPMI7951 and 86.5% with RVH-421.
As to `CN(c1ncccc1CNc1nc(Nc2ccc3c(c2)CC(=O)N3)ncc1C(F)(F)F)S(C)(=O)=O` + O=C(O)C(=O)Nc1sc2c(c1C(=O)O)CCNC2 [TCS401] (first compound 0.4 µM, partner dose 8.33333 µM), the cell count in the experiment on G361 turned out to be 83.7%; in the experiment with IPC-298 it was 83.9%; with IST-MEL1 it was 94.3%; in the experiment on LB2518-MEL, 79.8%; in the experiment on LOXIMVI it was 212%; with MEL-HO it was 83.9%. Besides, the cell count in the experiment with MZ2-MEL came out at 86.9%; in the experiment with MeWo it was 97.2%; with RPMI7951, 66.7%; in the experiment with RVH-421 it was 87.8%.
Consider `CS(=O)(=O)c1ccc(C(=O)Nc2ccc(Cl)c(-c3ccccn3)c2)c(Cl)c1` [vismodegib] + CC(=O)O[C@@]12CO[C@@H]1C[C@H](O)[C@@]1(C)C(=O)[C@H](O)C3=C(C)[C@@H](OC(=O)[C@H](O)[C@@H](NC(=O)OC(C)(C)C)c4ccccc4)C[C@@](O)([C@@H](OC(=O)c4ccccc4)[C@H]21)C3(C)C [Docetaxel] (first compound 5 µM, partner dose 0.0005 µM), for which the cell count with G361 is 11.2%; in the experiment on IPC-298, 30.1%; with IST-MEL1, 32.2%; with LB2518-MEL it was 23.8%; with LOXIMVI, 46.9%; in the experiment with MEL-HO, 35.9%. Further, the cell count came out at 39.7% in the experiment with MZ2-MEL, 24.2% in the experiment on MeWo, 25.4% in the experiment on RPMI7951 and 63% with RVH-421.
For the molecule `CS(=O)(=O)c1ccc(C(=O)Nc2ccc(Cl)c(-c3ccccn3)c2)c(Cl)c1` [vismodegib] + CC(=O)c1c(C)c2cnc(Nc3ccc(N4CCNCC4)cn3)nc2n(C2CCCC2)c1=O [palbociclib] (first compound 5 µM, partner dose 0.2 µM), the cell count with G361 came out at 58.9%; in the experiment on IPC-298, 67.3%; with IST-MEL1 it was 78.4%; in the experiment with LB2518-MEL, 66%; in the experiment with LOXIMVI it was 122%; in the experiment on MEL-HO it was 87.9%. The cell count in the experiment on MZ2-MEL came out at 72.1%; with MeWo, 64.1%; in the experiment on RPMI7951, 78.8%; in the experiment with RVH-421 it was 81.3%.
`CCCS(=O)(=O)Nc1ccc(F)c(C(=O)c2c[nH]c3ncc(Cl)cc23)c1F` + Nc1cccc2c1CN(C1CCC(=O)NC1=O)C2=O [lenalidomide] (first compound 0.4 µM, partner dose 5 µM): the cell count in the experiment on G361 was 78.2%; with IPC-298, 81.4%; in the experiment with IST-MEL1, 98.6%; in the experiment with LB2518-MEL it was 132%; in the experiment with LOXIMVI, 98.3%; in the experiment on MEL-HO, 102%. The cell count with MZ2-MEL is 87.2%; with MeWo, 98.5%; in the experiment on RPMI7951, 75.1%; with RVH-421 it was 119%.
On to `CS(=O)(=O)c1ccc(C(=O)Nc2ccc(Cl)c(-c3ccccn3)c2)c(Cl)c1` [vismodegib] + O=c1cc(-c2cccc3c2Sc2ccccc2S3)oc(N2CCOCC2)c1 [KU55933] (first compound 5 µM, partner dose 5 µM), for which the cell count with G361 came to 77.9%; with IPC-298 it was 90.7%; with IST-MEL1, 94.9%; with LB2518-MEL it was 98.4%; in the experiment on LOXIMVI it was 103%; in the experiment on MEL-HO, 82.9%. The cell count was determined as 101% in the experiment with MZ2-MEL, 102% in the experiment with MeWo, 107% with RPMI7951 and 108% in the experiment on RVH-421.
For `CN(c1ncccc1CNc1nc(Nc2ccc3c(c2)CC(=O)N3)ncc1C(F)(F)F)S(C)(=O)=O` + Cn1nnc2c(C(N)=O)ncn2c1=O [temozolomide] (first compound 0.4 µM, partner dose 10 µM), the cell count in the experiment with G361 is 81.3%; in the experiment on IPC-298, 91.4%; in the experiment with IST-MEL1 it was 71.6%; in the experiment on LB2518-MEL, 80.1%; in the experiment with LOXIMVI, 78.7%; in the experiment with MEL-HO, 91.9%. For the same molecule, the cell count with MZ2-MEL is 77%; in the experiment on MeWo, 91.2%; with RPMI7951 it was 58%; in the experiment on RVH-421, 82.5%.
In the case of `CS(=O)(=O)c1ccc(C(=O)Nc2ccc(Cl)c(-c3ccccn3)c2)c(Cl)c1` [vismodegib] + O=C(Nc1cccc(Cl)c1)Nc1ncc(CCNc2ncnc3ccsc23)s1 [SNS314] (first compound 5 µM, partner dose 0.004 µM), the cell count in the experiment on G361 came to 82.4%; in the experiment with IPC-298, 87.2%; in the experiment on IST-MEL1, 63.7%; in the experiment on LB2518-MEL it was 92.6%; in the experiment on LOXIMVI, 79.5%; in the experiment on MEL-HO it was 98.2%. Further, the cell count with MZ2-MEL came out at 93.3%; in the experiment on MeWo it was 71.9%; in the experiment with RPMI7951 it was 71.9%; in the experiment with RVH-421, 9.48%.
With `CN(c1ncccc1CNc1nc(Nc2ccc3c(c2)CC(=O)N3)ncc1C(F)(F)F)S(C)(=O)=O` + c1cc(-c2cnn3cc(-c4ccc(OCCN5CCCCC5)cc4)cnc23)ccn1 [Dorsomorphin] (first compound 0.4 µM, partner dose 2 µM), the cell count in the experiment with G361 came out at 65.1%; with IPC-298 it was 76.3%; in the experiment with IST-MEL1, 82.1%; in the experiment with LB2518-MEL, 54.9%; in the experiment with LOXIMVI it was 43.2%; in the experiment on MEL-HO, 70.7%. Further, the cell count in the experiment with MZ2-MEL amounted to 46%; with MeWo it was 62.8%; in the experiment with RPMI7951, 43.2%; with RVH-421 it was 148%.
As for `NC1(c2ccc(-c3nc4ccn5c(=O)[nH]nc5c4cc3-c3ccccc3)cc2)CCC1` + Cn1nnc2c(C(N)=O)ncn2c1=O [temozolomide] (first compound 2 µM, partner dose 10 µM), the cell count in the experiment on G361 was 121%; in the experiment with IPC-298, 85.2%; with IST-MEL1, 86.9%; with LB2518-MEL, 84.1%; in the experiment on LOXIMVI it was 65.8%; in the experiment with MEL-HO, 84.8%. The cell count is 117% in the experiment with MZ2-MEL, 77% in the experiment with MeWo, 72.6% in the experiment with RPMI7951 and 124% with RVH-421.
Turning to `C=C(c1ccc(C(=O)O)cc1)c1cc2c(cc1C)C(C)(C)CCC2(C)C` [Bexarotene] + O=S(=O)(c1ccccc1)N(CC(F)(F)F)c1ccc(C(O)(C(F)(F)F)C(F)(F)F)cc1 [T0901317] (first compound 10 µM, partner dose 7 µM), the cell count was 62.3% in the experiment on G361; 63.1% in the experiment with IPC-298; 76.6% in the experiment on IST-MEL1; 96.3% in the experiment with LB2518-MEL; 95.2% in the experiment with LOXIMVI; 67.9% in the experiment with MEL-HO. Also, the cell count in the experiment on MZ2-MEL was 102%; in the experiment with MeWo, 76.2%; in the experiment with RPMI7951 it was 72.3%; in the experiment with RVH-421, 68.8%.
For the molecule `NC1(c2ccc(-c3nc4ccn5c(=O)[nH]nc5c4cc3-c3ccccc3)cc2)CCC1` + C=CCNC1=C2C[C@@H](C)C[C@H](OC)[C@H](O)[C@@H](C)/C=C(\C)[C@H](OC(N)=O)[C@@H](OC)/C=C\C=C(/C)C(=O)NC(=CC1=O)C2=O [Tanespimycin] (first compound 2 µM, partner dose 0.01 µM), the cell count in the experiment on G361 was determined as 73.9%; in the experiment on IPC-298 it was 92.6%; with IST-MEL1, 41.6%; with LB2518-MEL, 73.2%; in the experiment with LOXIMVI, 113%; in the experiment with MEL-HO, 77.9%. For the same molecule, the cell count turned out to be 108% in the experiment on MZ2-MEL, 77.4% in the experiment with MeWo, 35.5% with RPMI7951 and 72.8% with RVH-421.
